# Experimental data as given in PubChem BioAssay AID1745845 (National Center for Advancing Translational Sciences (NCATS), 2022).
# The whole screen tested about 360,000 compounds, of which about 2,600 (0.72%) were called active. This list was built around the results that the source calls inconclusive (neither active nor inactive); the mix of calls is not that of the screen. Calls come from the whole dose curve; as a rule, active = well fitted inhibition curve with a large enough effect; inconclusive = small, poorly fitted or top-dose-only effect; inactive = no such curve, though single readings can be large or run the other way. Potencies of inconclusive entries are doubtful fits and often do not repeat.
# Experiment: Primary qHTS for Inhibitors of ATXN expression; note: nearly all actives have a fitted effect of over 55% in size
# Settings: HEK-293 ATXN2-luciferase reporter, luminescence, 24 h; activity change, negative = inhibition: at 57 µM (top of the series)
# Procedure, shortened: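 qHTS (up to 57 uM final) was run with 24 h compound exposure of reporter cells at 37 °C. Each well was multiplexed: SteadyGlo luminescence measured ATXN2-luciferase expression after a fluorogenic Gly-Phe-AFC viability readout (25 uM final).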
# % is set by controls: 0 for no effect and ±100 for the full control effect; potency is the fitted concentration of half-maximal effect; tags give direction and shape of the fitted curve.
SMILES,Potency,"activity change, negative = inhibition"
COc1ccc2c(C)cc(SCC(=O)Nc3cc(C(N)=O)cc(C(N)=O)c3)nc2c1,"inconclusive: 39.8 µM [inhibitor, single point]",–
COc1ccc(CN2CCN(C(=O)c3ccc(S(=O)(=O)NCc4ccco4)cc3)CC2)cc1F,–,inactive: -25.9%
COc1cccc(Nc2sc(C(=O)c3ccc(Cl)cc3)c(N)c2C(=O)NCCc2ccc(OC)c(OC)c2)c1,"inconclusive: 25.1 µM [inhibitor, partial curve, poor fit]",–
FC(F)(F)c1nnc2c(Sc3ccccc3)nc3ccc(Cl)cc3n12,"inconclusive: 8.91 µM [inhibitor, partial curve]",–
COc1ccc(-c2[nH]c(-c3ccc4c(c3)OCO4)nc2-c2ccccc2)cc1,"inconclusive: 31.6 µM [inhibitor, single point]",–
CCCCc1ccc(NC(=O)Nc2cnccn2)cc1,–,inactive: 25.9%
CCOc1ccc2c(c1)c(=O)c(C(=O)c1ccc(C)cc1)cn2Cc1ccccc1OC,–,inactive: -0.702%
CN(CC(=O)Nc1ccc(Cl)c(C(F)(F)F)c1)CC(=O)NC1CCCCC1,"inconclusive: 7.94 µM [inhibitor, partial curve, poor fit]",–
C=CCC[C@@H](Cc1ccc(F)cc1)C(=O)OC[C@H](Cc1c[nH]c2ccccc12)NC(=O)[C@H](CC=C)CC(=O)N(CCO)Cc1ccccc1,–,inactive: -17.4%
CC(=O)Nc1ccc(C(=O)N2CCCCC2c2cc(C(=O)Nc3cccc4c3CCCC4)no2)cc1 (stereo not drawn),"inconclusive: 17.8 µM [inhibitor, partial curve, poor fit]",–
CCCNC(=O)c1c(N)n(-c2ccc(S(N)(=O)=O)cc2)c2nc3ccccc3nc12,"inconclusive: 8.91 µM [inhibitor, partial curve]",–
C=C(C)Cn1c(-c2ccccc2)nc2ccccc21,–,inactive: 73.5%
C=CCc1c(C)nc(SC)nc1Nc1ccccc1,–,inactive: -9.03%
N#Cc1cccc(S(=O)(=O)N2CCN(c3ccnc4cc(Cl)ccc34)CC2)c1,"inconclusive: 7.94 µM [inhibitor, full curve]",–
O=C(/C=C\c1ccccc1)NCC(=O)N/N=C/c1ccc(O)cc1O,active: 17.8 µM,–
COc1ccc(NC(=O)C2CC3C=CC2C3)c([N+](=O)[O-])c1 (stereo not drawn),–,inactive: 27.7%
CC(C)C(=O)N1CCC1(C)C(=O)Nc1nc2ccccc2[nH]1 (stereo not drawn),–,inactive: 0.473%
O=C(c1ccc(Cn2c(=S)[nH]c3ccccc3c2=O)cc1)N1CCN(c2ccccn2)CC1,active: 15.8 µM,–
N#C/C(=C1\SCC(c2ccccc2Cl)S1)n1ccnc1 (stereo not drawn),–,inactive: -3.83%
Oc1ccc(-c2c(-c3ccsc3)sc3ccccc23)cc1,"inconclusive: 20 µM [inhibitor, single point]",–
COc1ccc(C(=O)Nc2nc3n(n2)C(c2ccc(F)cc2)C=C(c2ccc(Cl)cc2)N3)cc1 (stereo not drawn),–,inactive: -5.25%
CC(C)c1cc(C(N)=O)c(NC(=O)c2cccc(COc3ccc(Cl)cc3)c2)s1,"inconclusive: 17.8 µM [inhibitor, partial curve]",–

SMILES,Potency,"activity change, negative = inhibition"
CCCCN(C)S(=O)(=O)c1ccc(C(=O)Nc2nnc(-c3ccco3)o2)cc1,"inconclusive: 39.8 µM [inhibitor, single point]",–
C=CCC[C@H](Cc1ccc(F)cc1)C(=O)OC[C@@H](Cc1c[nH]c2ccccc12)NC(=O)[C@@H](CC=C)CC(=O)N[C@@H](CO)Cc1ccccc1,"inconclusive: 25.1 µM [inhibitor, partial curve]",–
S=C(NCc1ccco1)Nc1cccc(Cl)c1,–,inactive: 0.983%
C[C@@H](Oc1cc(-n2cnc3ccc(CN4CCN(C)CC4)cc32)sc1C(N)=O)c1ccccc1C(F)(F)F,active: 30.6 µM,–
CC1CCCN(c2ncnc3c2cnn3-c2ccccc2)C1 (stereo not drawn),"inconclusive: 25.1 µM [inhibitor, single point]",–
O=C(CN1CCC(C(O)(c2ccccc2)c2ccccc2)CC1)Nc1ccccc1,–,inactive: -35.5%
CSc1nc(SCC(=O)NC(c2ccccc2)c2ccccc2)c2c3c(sc2n1)CN(C)CC3,active: 20 µM,–
Cc1ccc(S(=O)(=O)c2nnn3c2nc(N2CCC(C(N)=O)CC2)c2cc(Cl)ccc23)cc1C,"inconclusive: 39.8 µM [inhibitor, single point]",–
C=CCc1cc(/C=C2/NC(=O)N(CC)C2=O)cc(OCC)c1OCc1ccc(C(=O)O)cc1,"inconclusive: 7.08 µM [inhibitor, partial curve, poor fit]",–
COc1ccc(-c2cc(C3CCN(C(=O)OC(C)(C)C)CC3)[nH]n2)cc1,–,inactive: -27.9%
CCCCCCN1C[C@H](n2cc(COC(=O)c3ccccc3)nn2)[C@@H](O)C[C@@H]1c1ccc(C)cc1,"inconclusive: 35.5 µM [inhibitor, single point]",–
CC1(Cc2cc(Cl)ccc2C(F)(F)F)C(=O)Nc2ccc(OC(F)(F)F)cc21 (stereo not drawn),"inconclusive: 39.8 µM [inhibitor, single point]",–
C=CCN=C1NN=C(c2ccc3c(c2)OCCO3)CS1,"inconclusive: 3.55 µM [inhibitor, partial curve, poor fit]",–
COC(=O)[C@]12CCCCC=C1N(Cc1ccc(Cl)cc1Cl)C(=O)[C@H](CC(=O)N1CCCCC1)C2,"inconclusive: 39.8 µM [inhibitor, single point]",–
CCN(C(=O)COC(=O)C1CCC(C(C)(C)C)CC1)c1c(N)n(Cc2ccccc2)c(=O)[nH]c1=O (stereo not drawn),"inconclusive: 31.6 µM [inhibitor, single point]",–
O=C1NC2CCCCC2C(=O)N1OS(=O)(=O)c1ccccc1 (stereo not drawn),"inconclusive: 25.1 µM [inhibitor, partial curve]",–
CC(=O)c1cccc(NC(=O)c2sc3nc4c(cc3c2N)CCCC4)c1,–,inactive: 1.21%
CCN(CC(=O)Nc1ccc(NC(C)=O)cc1)C(=O)COc1ccccc1-c1ccccc1,"inconclusive: 39.8 µM [inhibitor, partial curve, poor fit]",–
Cc1ccc(N2C(=O)c3n[nH]c(C)c3C2c2ccc(C(C)C)cc2)cc1 (stereo not drawn),"inconclusive: 39.8 µM [inhibitor, single point]",–
C(=N\Nc1nc(Nc2ccccc2)nc(Nc2ccccc2)n1)/c1cccnc1,–,inactive: -6.45%
Cc1cc(C)cc(N2C(=O)CC(Sc3nnnn3-c3ccccc3)C2=O)c1 (stereo not drawn),"inconclusive: 39.8 µM [inhibitor, single point]",–
